Five cell lines from the supplement of paper PMC4967469 can be followed below.

Holding throughout (assay): Viability of human cancer cell lines after 72 h of drug (GDSC screen)
Compound in test [1]: CCn1c(-c2nonc2N)nc2c(C#CC(C)(C)O)ncc(OC[C@H]3CCCNC3)c21 [GSK690693]
The following applies: top dose 10.24 µM; top dose inferred. Here is the method:
(§1)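 Human cancer cell lines in 384-well plates, medium with 10% serum, drug for 72 h over a 256-fold dose range (nine 2-fold or five 4-fold steps up to the top dose). Adherent lines were fixed and stained with the nucleic acid dye Syto60, suspension lines read with resazurin; signal relative to control wells, capped at 0 and 100%. One two-parameter sigmoid per drug and line, fitted in a mixed model over all curves with the slope shared within a line.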

Compound in test [2]: COc1cc2c(NC3CCN(C(C)C)CC3)nc(C3CCCCC3)nc2cc1OCCCN1CCCC1 [UNC0638]
Here is the method: as §1

Compound in test [3]: COc1ccc(N(C(=O)Oc2c(C)cccc2C)c2ccnc(Nc3ccc(N4CCN(C)CC4)cc3)n2)c(OC)c1 [WH-4-023]
The following applies: top dose 5.12 µM; top dose inferred. Here is the method:
as §1

Compound in test [4]: CC1=C(/C=C/C(C)=C/C=C/C(C)=C/C(=O)O)C(C)(C)CCC1 [Tretinoin]
The following applies: top dose 10 µM; top dose inferred. Here is the method:
as §1

Compound in test [5]: O=C(NCCCNc1nc(Nc2cccc(NC(=O)N3CCCC3)c2)ncc1I)c1cccs1 [BX-795]
The following applies: top dose 5 µM; top dose inferred. How it is done:
as §1

Compound in test [6]: Oc1cccc(-c2nc(N3CCOCC3)c3oc4ncccc4c3n2)c1 [PI-103]
The following applies: top dose 10.24 µM. How it is done:
as §1

Compound in test [7]: Cc1cccc(-c2[nH]c(C(C)(C)C)nc2-c2ccc3c(c2)OCO3)n1 [SB-505124]
The following applies: top dose 10 µM; top dose inferred. How it is done:
as §1

Setting [8] is: top dose 20 µM, screen: GDSC drug entry 1236, top dose inferred.
The mark [9] stands for this setting: top dose 40 µM, screen: GDSC drug entry 245.

A lower IC50 marks a more sensitive line; fits outside the tested doses are given as limits. AUC, from the same fit, is the share of area under the viability curve across the 256-fold dose range; it is 1 without any effect and falls as sensitivity rises. For some assays here: An inferred top dose is not printed in the source and was worked back from the curve model. For some assays here: An entry number marks a drug with two screens in the source, which often give different values.

For orientation: IC50 means the concentration at which inhibition is half-maximal. As to VCaP (prostate, adherent), the AUC worked out at 0.706 in test [1]; 0.848 in test [2] (setting [8]); 0.722 in test [2] (setting [9]); 0.977 in test [3]; 0.959 in test [4]; 0.919 in test [5]. Besides, the AUC in test [6] is 0.321; in test [7] it was 0.986. For the same cell line, the IC50 in test [1] is 2.5 µM; in test [2] (setting [8]), 15.8 µM; in test [2] (setting [9]) it was 10.9 µM; in test [3] it was more than 5.12 µM; in test [4], more than 10 µM; in test [5], more than 5 µM. Also, the figures for the half-inhibitory concentration (IC50) in test [6] and in test [7] were 0.199 µM and more than 10 µM, respectively.

Take WIL2-NS (lymphoid neoplasm, suspension): the AUC worked out at 0.707 in test [1]; 0.809 in test [2] (setting [8]); 0.632 in test [2] (setting [9]); 0.951 in test [3]; 0.99 in test [4]; 0.992 in test [5]. Besides, the AUC was 0.188 in test [6] and 0.991 in test [7]. Besides, the IC50 in test [1] was 2.15 µM; in test [2] (setting [8]), 8.15 µM; in test [2] (setting [9]), 5.36 µM; in test [3], more than 5.12 µM; in test [4] it was more than 10 µM; in test [5] it was more than 5 µM. Besides, the IC50 in test [6] is 0.0963 µM; in test [7] it was more than 10 µM.

Consider WSU-NHL (lymphoid neoplasm, suspension), for which the AUC in test [1] turned out to be 0.989; in test [2] (setting [8]), 0.818; in test [2] (setting [9]), 0.726; in test [3] it was 0.988; in test [4] it was 0.975; in test [5] it was 0.827. Also, the AUC in test [6] was 0.723; in test [7], 0.979. Besides, the half-inhibitory concentration (IC50) in test [1] was more than 10.2 µM; in test [2] (setting [8]), 9.59 µM; in test [2] (setting [9]) it was 10 µM; in test [3], more than 5.12 µM; in test [4], more than 10 µM; in test [5], 2.58 µM. Moreover, the 50% inhibitory concentration (IC50) was 2.49 µM in test [6] and more than 10 µM in test [7].

On to YT (lymphoid neoplasm, suspension), for which the AUC in test [1] was 0.929; in test [2] (setting [8]), 0.991; in test [2] (setting [9]), 0.74; in test [3], 0.992; in test [4], 0.955; in test [5], 0.693. The AUC came to 0.072 in test [6] and 0.991 in test [7]. In addition, the IC50 was more than 10.2 µM in test [1]; more than 20 µM in test [2] (setting [8]); 10.6 µM in test [2] (setting [9]); more than 5.12 µM in test [3]; more than 10 µM in test [4]; 0.987 µM in test [5]. Besides, the values for the concentration for half-maximal inhibition (IC50) in test [6] and in test [7] were less than 0.04 µM and more than 10 µM, respectively.

Take no-11 (glioma, adherent): the AUC in test [1] is 0.964; in test [2] (setting [8]), 0.981; in test [2] (setting [9]), 0.806; in test [3], 0.856; in test [4], 0.982; in test [5], 0.876. Also, the figures for the AUC in test [6] and in test [7] were 0.525 and 0.98, respectively. Besides, the IC50 is more than 10.2 µM in test [1]; more than 20 µM in test [2] (setting [8]); 26.9 µM in test [2] (setting [9]); more than 5.12 µM in test [3]; more than 10 µM in test [4]; more than 5 µM in test [5]. Also, the IC50 in test [6] is 0.764 µM; in test [7], more than 10 µM.
